Assay [1] concerns the target 6×His-ZapC F30D (Escherichia coli) (UniProt P75862). Put plainly: BLI; 6×His-ZapC or its mutants (0.5 µM) loaded on Ni-NTA biosensors, untagged FtsZ or its variants in solution; Octet-Red96, 30°C, 1× Pol buffer (50 mM HEPES-NaOH pH 6.8, 50 mM KCl, 10 mM MgCl2); apparent Kd from the signal at the end of association against concentration, one-site fit; three repeats with mean (X) and SD.

The target in assay [2] is 6×His-ZapC K94D (Escherichia coli) (UniProt P75862). The description is as above.

pKd: −log10 of the molar value. Like-named read-outs stand apart in the source and are kept apart here. For part of its entries the source gives two or more results. This is not the full list of results. An entry can have further records. For some of these results: The values listed for one entry seem to repeat one measurement; a mean can stand among them. Some values that stand alone complete this part of the results.

Regarding “FtsZ (untagged, wild type) (from UniProt P0A9A6 1-383) (natural protein)”, the Kd in assay [1] is 2.97 µM, 2.55 µM, 3.04 µM; in assay [2], 2.14 µM, 1.74 µM, 2.1 µM. Further, the pKd was 5.54 in assay [1] (mean of three experiments) and 5.70 in assay [2] (mean of three experiments).

The record behind these values is PMC12607630.
